To fix the notation:
B1: Caulobacter ParB omega fusion; a variant is named by its letters at X, in order, B8GW30 (parent)
chain: MESVVVGEPGMSEGRRGLGRGLSALLGEVDAAPAQAPGEQLGGSREAPIEILQRNPDQPRRTFREEDLEDLSNSIREKGVLQPILVRPSPDTAGEYQIVAGERAWRAAQRAGLKTVPIMVRELDDLAVLEIGIIENVQRADLNVLEEALSYKVLMEKFERTQENIAQTIGKSXSHVANXMRLLXLPDEVQSYLVSGELTAXHARAIAAAADPVALAKQIIEGGLSVRETEALARKAPNLSAGKSKGGRPPRVKDTDTQALESDLSSVLGLDVSIDHRGSTGTLTITYATLEQLDDLCNRLTRGI

Whole data set: some 81,000 sequences, median “one-hybrid fitness for binding parS DNA” near -0.17, cut for the highest 2% near 0.51. Some of the results follow. Bounds are passed on as bounds.

Here are results for 153 variants from a collection of fitness landscapes (doi:10.1016/j.celrep.2020.107928).

In the experiment the parent is B1. The experiment is described as follows: one-hybrid fitness for binding parS DNA (scaled: cognate 1, non-cognate 0); higher = stronger binding. Particulars: with parS DNA site. The method in brief:
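Pre- and post-selection plasmids were Illumina-sequenced, three replicate libraries were pooled, and any variant with under 10 reads was removed. The libraries were Caulobacter ParB with four specificity codons randomised, selected in E. coli USO through a HIS3 reporter whose site is 19 bp from the promoter. Cells grew 48 hours at 37°C on M9 without histidine, with 0.1 mM IPTG and 5 mM 3-AT. Fitness is the log change in variant-to-wild-type read ratio, rescaled against cognate and non-cognate.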
For AHKF, the “one-hybrid fitness for binding parS DNA” value is at most 0.2.

As to LAHN, the “one-hybrid fitness for binding parS DNA” value was at most 0.2.

For AILL, the “one-hybrid fitness for binding parS DNA” value was at most 0.2.

For LPQV, the “one-hybrid fitness for binding parS DNA” value is at most 0.2.

As for FLNY, the “one-hybrid fitness for binding parS DNA” value was at most 0.2.

In the case of EVRY, the “one-hybrid fitness for binding parS DNA” value was at most 0.2.

Regarding YTQL, the “one-hybrid fitness for binding parS DNA” value was at most 0.2.

As to QPQA, the “one-hybrid fitness for binding parS DNA” value is at most 0.2.

Take YLSV: the “one-hybrid fitness for binding parS DNA” value was at most 0.2.

Consider EYGW, for which the “one-hybrid fitness for binding parS DNA” value was at most 0.2.

As to IDPS, the “one-hybrid fitness for binding parS DNA” value was at most 0.2.

For the variant DSGM, the “one-hybrid fitness for binding parS DNA” value was at most 0.2.

Regarding LTEW, the “one-hybrid fitness for binding parS DNA” value was at most 0.2.

Take QVVV: the “one-hybrid fitness for binding parS DNA” value is at most 0.2.

For QRQD, the “one-hybrid fitness for binding parS DNA” value was at most 0.2.

Regarding VHAT, the “one-hybrid fitness for binding parS DNA” value was at most 0.2.

For the variant QWCC, the “one-hybrid fitness for binding parS DNA” value is at most 0.2.

As to REKR, the “one-hybrid fitness for binding parS DNA” value was at most 0.2.

In the case of HLHD, the “one-hybrid fitness for binding parS DNA” value is at most 0.2.

Regarding VRCG, the “one-hybrid fitness for binding parS DNA” value was at most 0.2.

As to LSQC, the “one-hybrid fitness for binding parS DNA” value was at most 0.2.

In the case of ITVC, the “one-hybrid fitness for binding parS DNA” value was at most 0.2.

As for LVAD, the “one-hybrid fitness for binding parS DNA” value was at most 0.2.

Regarding PGSS, the “one-hybrid fitness for binding parS DNA” value is at most 0.2.

On to VDYL, for which the “one-hybrid fitness for binding parS DNA” value is at most 0.2.

Consider YLDR, for which the “one-hybrid fitness for binding parS DNA” value was at most 0.2.

As to KDSL, the “one-hybrid fitness for binding parS DNA” value is at most 0.2.

PVPP: the “one-hybrid fitness for binding parS DNA” value is at most 0.2.

With VGMC, the “one-hybrid fitness for binding parS DNA” value is at most 0.2.

As to ITHH, the “one-hybrid fitness for binding parS DNA” value was at most 0.2.

As for PPIR, the “one-hybrid fitness for binding parS DNA” value is at most 0.2.

Take LSNN: the “one-hybrid fitness for binding parS DNA” value is at most 0.2.

Consider SYYP, for which the “one-hybrid fitness for binding parS DNA” value was at most 0.2.

Take YSFS: the “one-hybrid fitness for binding parS DNA” value is at most 0.2.

Regarding EWSG, the “one-hybrid fitness for binding parS DNA” value is at most 0.2.

Consider NMHF, for which the “one-hybrid fitness for binding parS DNA” value is at most 0.2.

As to CRCY, the “one-hybrid fitness for binding parS DNA” value is at most 0.2.

Regarding QFRG, the “one-hybrid fitness for binding parS DNA” value was at most 0.2.

With QHAQ, the “one-hybrid fitness for binding parS DNA” value is at most 0.2.

YLTN: the “one-hybrid fitness for binding parS DNA” value was at most 0.2.

As to STFW, the “one-hybrid fitness for binding parS DNA” value is at most 0.2.

As for HTNH, the “one-hybrid fitness for binding parS DNA” value was at most 0.2.

Turning to EYVT, the “one-hybrid fitness for binding parS DNA” value was at most 0.2.

For the variant NMTS, the “one-hybrid fitness for binding parS DNA” value was at most 0.2.

SNCG: the “one-hybrid fitness for binding parS DNA” value is at most 0.2.

Consider SPDK, for which the “one-hybrid fitness for binding parS DNA” value was at most 0.2.

Take AWDG: the “one-hybrid fitness for binding parS DNA” value was at most 0.2.

On to QCMG, for which the “one-hybrid fitness for binding parS DNA” value is at most 0.2.

For QIRA, the “one-hybrid fitness for binding parS DNA” value is at most 0.2.

Regarding AYGM, the “one-hybrid fitness for binding parS DNA” value is at most 0.2.

With NAQG, the “one-hybrid fitness for binding parS DNA” value is at most 0.2.

FQTH: the “one-hybrid fitness for binding parS DNA” value is at most 0.2.

As for SYKS, the “one-hybrid fitness for binding parS DNA” value was at most 0.2.

As to GAKC, the “one-hybrid fitness for binding parS DNA” value is at most 0.2.

Turning to YNTD, the “one-hybrid fitness for binding parS DNA” value is at most 0.2.

On to PTMY, for which the “one-hybrid fitness for binding parS DNA” value is at most 0.2.

On to PDRL, for which the “one-hybrid fitness for binding parS DNA” value was at most 0.2.

Take CNIV: the “one-hybrid fitness for binding parS DNA” value was at most 0.2.

For the variant QKHV, the “one-hybrid fitness for binding parS DNA” value was at most 0.2.

Consider PLPM, for which the “one-hybrid fitness for binding parS DNA” value is at most 0.2.

As to NLCS, the “one-hybrid fitness for binding parS DNA” value was at most 0.2.

As to QQTN, the “one-hybrid fitness for binding parS DNA” value was at most 0.2.

As to HACS, the “one-hybrid fitness for binding parS DNA” value is at most 0.2.

As for GIAH, the “one-hybrid fitness for binding parS DNA” value was at most 0.2.

KHSF: the “one-hybrid fitness for binding parS DNA” value is at most 0.2.

For PFPE, the “one-hybrid fitness for binding parS DNA” value is at most 0.2.

For the variant AGAW, the “one-hybrid fitness for binding parS DNA” value is at most 0.2.

Turning to HHRG, the “one-hybrid fitness for binding parS DNA” value was at most 0.2.

Consider YPMY, for which the “one-hybrid fitness for binding parS DNA” value was at most 0.2.

With CYTR, the “one-hybrid fitness for binding parS DNA” value is at most 0.2.

In the case of LILQ, the “one-hybrid fitness for binding parS DNA” value was at most 0.2.

With CPAF, the “one-hybrid fitness for binding parS DNA” value was at most 0.2.

With SKQV, the “one-hybrid fitness for binding parS DNA” value is at most 0.2.

On to LNTR, for which the “one-hybrid fitness for binding parS DNA” value was at most 0.2.

As for LGSW, the “one-hybrid fitness for binding parS DNA” value is at most 0.2.

As to CTHV, the “one-hybrid fitness for binding parS DNA” value is at most 0.2.

Regarding DRYG, the “one-hybrid fitness for binding parS DNA” value was at most 0.2.

Turning to PEGT, the “one-hybrid fitness for binding parS DNA” value is at most 0.2.

Consider DLDA, for which the “one-hybrid fitness for binding parS DNA” value was at most 0.2.

LMGC: the “one-hybrid fitness for binding parS DNA” value is at most 0.2.

In the case of IPYS, the “one-hybrid fitness for binding parS DNA” value was at most 0.2.

As to MGTW, the “one-hybrid fitness for binding parS DNA” value is at most 0.2.

DSSQ: the “one-hybrid fitness for binding parS DNA” value was at most 0.2.

On to RQSI, for which the “one-hybrid fitness for binding parS DNA” value was at most 0.2.

Turning to QTNP, the “one-hybrid fitness for binding parS DNA” value was at most 0.2.

For CNST, the “one-hybrid fitness for binding parS DNA” value is at most 0.2.

As for AQTL, the “one-hybrid fitness for binding parS DNA” value was at most 0.2.

For the variant DTGR, the “one-hybrid fitness for binding parS DNA” value was at most 0.2.

For the variant QGSP, the “one-hybrid fitness for binding parS DNA” value is at most 0.2.

Take FPEP: the “one-hybrid fitness for binding parS DNA” value was at most 0.2.

Regarding VPCA, the “one-hybrid fitness for binding parS DNA” value is at most 0.2.

As for LIIC, the “one-hybrid fitness for binding parS DNA” value was at most 0.2.

As to NYTF, the “one-hybrid fitness for binding parS DNA” value is at most 0.2.

IINN: the “one-hybrid fitness for binding parS DNA” value is at most 0.2.

For DLPS, the “one-hybrid fitness for binding parS DNA” value was at most 0.2.

Regarding QIHL, the “one-hybrid fitness for binding parS DNA” value is at most 0.2.

Consider AAYI, for which the “one-hybrid fitness for binding parS DNA” value is at most 0.2.

For FPVG, the “one-hybrid fitness for binding parS DNA” value was at most 0.2.

As to AGPP, the “one-hybrid fitness for binding parS DNA” value is at most 0.2.

As for LLGC, the “one-hybrid fitness for binding parS DNA” value was at most 0.2.

As to RLKC, the “one-hybrid fitness for binding parS DNA” value was 0.835.

With TPRL, the “one-hybrid fitness for binding parS DNA” value was at most 0.2.

As to MLPY, the “one-hybrid fitness for binding parS DNA” value was at most 0.2.

For the variant ISIR, the “one-hybrid fitness for binding parS DNA” value is at most 0.2.

For the variant FLCS, the “one-hybrid fitness for binding parS DNA” value was at most 0.2.

For RKFV, the “one-hybrid fitness for binding parS DNA” value is at most 0.2.

MRAR: the “one-hybrid fitness for binding parS DNA” value is at most 0.2.

On to RFSL, for which the “one-hybrid fitness for binding parS DNA” value was at most 0.2.

LEYT: the “one-hybrid fitness for binding parS DNA” value was at most 0.2.

On to SDRM, for which the “one-hybrid fitness for binding parS DNA” value is at most 0.2.

On to SNIY, for which the “one-hybrid fitness for binding parS DNA” value was at most 0.2.

With KTDT, the “one-hybrid fitness for binding parS DNA” value was at most 0.2.

For SAFR, the “one-hybrid fitness for binding parS DNA” value is at most 0.2.

Regarding SYPT, the “one-hybrid fitness for binding parS DNA” value was at most 0.2.

On to RAMC, for which the “one-hybrid fitness for binding parS DNA” value was 0.956.

Regarding AVLP, the “one-hybrid fitness for binding parS DNA” value was at most 0.2.

Consider MHAV, for which the “one-hybrid fitness for binding parS DNA” value was at most 0.2.

QDWR: the “one-hybrid fitness for binding parS DNA” value is at most 0.2.

For PTVV, the “one-hybrid fitness for binding parS DNA” value was at most 0.2.

On to RHGS, for which the “one-hybrid fitness for binding parS DNA” value turned out to be 0.888.

As to PRED, the “one-hybrid fitness for binding parS DNA” value is at most 0.2.

Take ADHC: the “one-hybrid fitness for binding parS DNA” value is at most 0.2.

For the variant RESG, the “one-hybrid fitness for binding parS DNA” value stood at 0.217.

Turning to YDVR, the “one-hybrid fitness for binding parS DNA” value was at most 0.2.

In the case of TKYA, the “one-hybrid fitness for binding parS DNA” value was at most 0.2.

In the case of KTRY, the “one-hybrid fitness for binding parS DNA” value was at most 0.2.

Consider AFYS, for which the “one-hybrid fitness for binding parS DNA” value is at most 0.2.

Consider DAFT, for which the “one-hybrid fitness for binding parS DNA” value is at most 0.2.

Turning to MGGS, the “one-hybrid fitness for binding parS DNA” value is at most 0.2.

In the case of VYEG, the “one-hybrid fitness for binding parS DNA” value was at most 0.2.

As for PCPC, the “one-hybrid fitness for binding parS DNA” value is at most 0.2.

Consider WDLT, for which the “one-hybrid fitness for binding parS DNA” value was at most 0.2.

As for CFRR, the “one-hybrid fitness for binding parS DNA” value was at most 0.2.

Regarding ICNS, the “one-hybrid fitness for binding parS DNA” value is at most 0.2.

Regarding EVLG, the “one-hybrid fitness for binding parS DNA” value was at most 0.2.

Regarding DTDS, the “one-hybrid fitness for binding parS DNA” value was at most 0.2.

With ECMG, the “one-hybrid fitness for binding parS DNA” value was at most 0.2.

Consider WAES, for which the “one-hybrid fitness for binding parS DNA” value is at most 0.2.

Consider SDQF, for which the “one-hybrid fitness for binding parS DNA” value was at most 0.2.

Consider PAVT, for which the “one-hybrid fitness for binding parS DNA” value was at most 0.2.

SDNG: the “one-hybrid fitness for binding parS DNA” value was at most 0.2.

With EKIR, the “one-hybrid fitness for binding parS DNA” value is at most 0.2.

Consider THER, for which the “one-hybrid fitness for binding parS DNA” value is at most 0.2.

Consider NYIS, for which the “one-hybrid fitness for binding parS DNA” value is at most 0.2.

Turning to LPNS, the “one-hybrid fitness for binding parS DNA” value was at most 0.2.

In the case of HGVG, the “one-hybrid fitness for binding parS DNA” value was at most 0.2.

Regarding QNHF, the “one-hybrid fitness for binding parS DNA” value is at most 0.2.

With WMHM, the “one-hybrid fitness for binding parS DNA” value was at most 0.2.

Regarding IANA, the “one-hybrid fitness for binding parS DNA” value was at most 0.2.

Regarding YVYT, the “one-hybrid fitness for binding parS DNA” value is at most 0.2.

VGSW: the “one-hybrid fitness for binding parS DNA” value was at most 0.2.

With RVCF, the “one-hybrid fitness for binding parS DNA” value is 0.249.

For the variant YQPY, the “one-hybrid fitness for binding parS DNA” value is at most 0.2.
